Assay results published in ChEMBL document CHEMBL1157539, “Thousands of chemical starting points for antimalarial lead identification” (Nature, 2010).
The full ranking holds about 13,000 compounds; the median of “IFI” is about 4, and the highest 2% start at about 17. Some of the results follow.

test: GSK_TCMDC: Inhibition Frequency Index (IFI). The number of non-kinase HTS assays where a compound showed > 50 % inhibition, expressed as a percentage of the number of such assays in which the compound was tested (-0 is zero); assay type: functional

| SMILES | IFI |
| --- | --- |
| O=C(Cc1cccs1)NCC(c1ccccc1Cl)c1c[nH]c2ccccc12 (stereo not given) | 1.82% |
| COc1ccc(C2CC(=O)C3=C(C2)NC(C)=C(C(=O)OC(C)C)C3c2cccc(O)c2)cc1OC (stereo not given) | -0% |
| CC(C)CNC(=O)c1ccnc(-c2ccc(CNCCCc3ccccc3)cc2)c1 | 3.28% |
| O=C(c1ccc(Cl)cc1)N1CCCC(C(=O)N(Cc2nnc(-c3ccccc3Cl)o2)C2CC2)C1 (stereo not given) | 2.47% |
| CC(C)N1CCN(C(CN2CCN(CCCOc3ccc4ccccc4c3)CC2)c2ccc(F)cc2)CC1 (stereo not given) | 9.85% |
| C=CCOC(=O)N1CCC(CNCc2ccc(-c3ccc(-c4nc5cc(C(F)(F)F)ccc5[nH]4)cc3)cc2)C1 (stereo not given) | 9% |
| CC1CC(NCCCNc2cc(=O)c3ccccc3[nH]2)c2c(Cl)c(Cl)cc(Cl)c21 (stereo not given) | 6.38% |
| CCCCCCN1CCCN(Cc2ccc(C(=O)Nc3ccc(CC)cc3)cc2)CC1 | 13.5% |
| CN(C)c1ccc(CN2CCC(NC(=O)c3ccc(-c4cccc(C(F)(F)F)c4)s3)CC2)cc1 | 17.2% |
| O=C(Nc1cccc(CN2CCN(Cc3ccc(O)cc3)CC2)c1)c1cccc(C(F)(F)F)c1 | 4.1% |
| O=C(O)C[C@H](NC(=O)CCCNC(=O)c1cccc(-c2ccc(Cl)c(Cl)c2)c1)C(=O)O | -0% |
| COc1ccc(NC(=O)Nc2ccc(-c3ccc(-c4nc5cccc(C)c5[nH]4)s3)cc2)cc1 | 2% |
| Cc1cnc(NCCc2ccc(F)cc2)nc1N[C@@H](CC(C)C)C(=O)Nc1ccccc1 | 9.76% |
| Cc1[nH]c(C)c(-c2ccc(-c3ccc(OC(F)(F)F)cc3)nc2)c(=O)c1Br | 0.92% |
| COc1ccc(NC(=O)NCC2CCCN(CCCCCNC(=O)/C=C/c3ccc(Cl)c(Cl)c3)C2)c(OC)c1 (stereo not given) | 4.29% |
| O=C(Nc1ccc(-c2csc3nccn23)cc1)c1ccc(Cl)cc1 | 9.8% |
| CCc1ccccc1OCCCON1C(=N)N=C(N)NC1(C)C | 4.93% |
| Cn1nc(-c2ccc(Cl)cc2)c2cc(C(=O)NCCN3CCOCC3)sc21 | 1.92% |
| CC(C)NCc1ccc(-c2cccc(-c3nc4cc(F)ccc4[nH]3)c2)cc1 | 3.77% |
| CCOC(=O)C1=C(C)N=c2sc(=Cc3cc(Cl)ccc3O)c(=O)n2C1c1ccc(OC)cc1 (stereo not given) | 2.84% |
| COc1cccc(NC(=O)c2nc(N3CCN(c4ccncc4)CC3)ccc2Cl)c1 | 5.71% |
| N#Cc1ccc(C2CCN(CC[C@H](N)Cc3ccc(Cl)s3)CC2)cc1 | 12.5% |
| Cc1nc2ccccc2c(=O)n1/N=C/c1ccccc1[N+](=O)[O-] | 4.23% |
| c1ccc(CN2CCC(NCc3ccccc3-c3cccc(CNCc4ccc5c(c4)OCO5)c3)CC2)cc1 | 10.8% |
| COc1ccc2nccc([C@@H](O)CN3CCC(NCc4ccc5cccc(O)c5n4)CC3)c2n1 | 2.94% |
